Assay results taken from PubChem BioAssay AID504832 (National Center for Advancing Translational Sciences (NCATS), 2011).
Hit rate of the full screen: of about 310,000 compounds, about 18,000 (5.8%) were called active. Inconclusive means that the source gave no clear call. Such entries were picked first, then a sample of the others. Calls come from the whole dose curve; as a rule, active = well fitted inhibition curve with a large enough effect; inconclusive = small, poorly fitted or top-dose-only effect, or another doubt; inactive = no such curve, though single readings can be large or run the other way. No potency is given beside an inconclusive call; the fits are too rough.

assay: Primary qHTS for delayed death inhibitors of the malarial parasite plastid, 48 hour incubation; conditions: P. falciparum luciferase growth in erythrocytes; series mostly up to 28.7 µM; activity change, negative = inhibition: at the top concentration
In short: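 Parasite viability was followed by luminescence of a genomically integrated firefly luciferase. Cultures held 0.1% parasitemia at 2% hematocrit (final), incubated under 5% CO2 at 37 C.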
% is set by controls: 0 for no effect and ±100 for the full control effect; potency is the fitted concentration of half-maximal effect; tags give direction and shape of the fitted curve.

Compound | Potency | activity change, negative = inhibition
CC(=O)N1c2ccc(S(=O)(=O)N3CCC(C(=O)N4CCCC(C)C4)CC3)cc2CC1C (stereo not drawn) | inconclusive [inhibitor, single point] | 
C/C=C/c1ccc(OCC(=O)OCc2csc(Nc3ccc(C)cc3)n2)c(OC)c1 | inconclusive [inhibitor, single point] | 
CCN(CC)CCn1c(=N)n(CC(O)COc2cccc(C)c2)c2ccccc21 (stereo not drawn) | inconclusive [inhibitor, full curve, poor fit] | 
COC(=O)C1=C(c2ccc(OC)c(OC)c2)C[C@@H]2CC[C@H]1N2C(=O)NC1Cc2ccccc2C1 | inconclusive [inhibitor, single point] | 
CCC(=O)N1CCc2cc(S(=O)(=O)NCCCN(CC)Cc3ccccc3)ccc21 |  | inactive: -7.19%
Cc1cc(C)c(OCC(O)CN2CCN(C(=O)c3ccccc3)CC2)c(C)c1 (stereo not drawn) | inconclusive [inhibitor, partial curve, poor fit] | 
COc1ccc(-c2oc3ccccc3c2C#Cc2cncn2C)cc1 | active: 0.586 µM | 
CCCCNC(=O)CSc1nnc(-c2cccc(S(=O)(=O)N3CCOCC3)c2)o1 | active: 13.1 µM | 
Cc1cccc(-c2nc(NCCCN(C)C)c3ccccc3n2)c1 | inconclusive [inhibitor, single point] | 
COc1ccc(NC(=O)CSc2nc(C3CC3)nc3ccccc23)c(OC)c1 | inconclusive [inhibitor, single point] | 
CC1CN(C(=O)c2cc3ccccc3cc2O)CC(C)O1 (stereo not drawn) | inconclusive [inhibitor, single point] | 
C=CCn1cc(/C=C2\SC(N3CCOCC3)=NC2=O)c2ccccc21 | inconclusive [inhibitor, single point] | 
CCOc1ccccc1NC(=O)C1CCN(C(=O)c2cccs2)CC1 |  | inactive: 7.36%
O=C1NC[C@@H](Cc2ccc(O)cc2)N(CCc2cccc3ccccc23)C1=O | inconclusive [inhibitor, partial curve] | 
COc1ccc(NC(=O)CN2C(=O)NC3(CCCC3)C2=O)cc1OC |  | inactive: 2.82%
COc1ccc(C(=O)COc2cccc(NC(=O)c3ccco3)c2)cc1 | inconclusive [inhibitor, partial curve] | 
CC(=O)O/C(=C\c1cn(C(C)=O)c2ccccc12)C(=O)O | inconclusive [inhibitor, full curve] | 
c1ccc(CNc2ncnc3ccccc23)cc1 | inconclusive [inhibitor, single point] | 
CC(=O)Nc1nc(-c2ccc(Br)s2)cs1 |  | inactive: -47.2%
O=C(OCCNC(=O)c1ccc2ccccc2n1)c1ccc(F)cc1 |  | inactive: 52.8%
O=C(NC(=S)Nc1ccccc1C(=O)O)c1ccc2ccccc2c1 |  | inactive: 55.6%
CC(C)OCCCN1CN(S(=O)(=O)c2ccccc2)c2nc3ccccc3nc21 | inconclusive [inhibitor, single point] | 
Cn1ccnc1C(=O)c1ccc(N)cc1 |  | inactive: 15.3%

Compound | Potency | activity change, negative = inhibition
O=C(Nc1cccc(Cl)c1)N(Cc1nc2ccccc2c(=O)[nH]1)Cc1cccs1 | active: 7.38 µM | 
COCC(=O)Nc1cc(C(=O)Nc2ccccc2)ccc1Cl |  | inactive: 64.9%
Cc1noc(C)c1C(=O)Nc1nnc(-c2ccccc2)s1 | inconclusive [inhibitor, partial curve, poor fit] | 
COc1cccc(OC)c1C(=O)N1CCN(c2c(Cc3ccccc3)c(C)nc3ncnn23)CC1 | inconclusive [inhibitor, partial curve, poor fit] | 
COc1ccc(C2/C=C\CNCC(=O)N2Cc2ccc(F)cc2)cc1 (stereo not drawn) | inconclusive [inhibitor, single point] | 
CSc1ccc(/C=N/NC(=O)c2ccc(-n3cnnn3)cc2)cc1 | inconclusive [inhibitor, partial curve, poor fit] | 
O=C(CN(Cc1ccc(F)cc1)C(=O)CCC(=O)Nc1nccs1)NCc1ccccc1 |  | inactive: -17.1%
Cc1cccc(N2CCN(S(=O)(=O)c3cc(-c4cc(C)no4)ccc3C)CC2C)c1 (stereo not drawn) | inconclusive [inhibitor, single point] | 
Cn1c(O)c(N=NC(=O)CNC(=O)c2cccnc2)c2ccccc21 |  | inactive: 13.7%
CCC(C)NC(=O)c1c(N)n(/N=C/c2cccs2)c2nc3ccccc3nc12 (stereo not drawn) | inconclusive [inhibitor, partial curve, poor fit] | 
CC(C)(C)OC(=O)N1CCC(c2c(C(=O)O)cnn2-c2ccc(Cl)cc2)CC1 | inconclusive [inhibitor, single point] | 
Cc1ccccc1NC(=O)c1ccc(CSc2ncccn2)cc1 |  | inactive: 16.2%
Cc1cc(C(=O)COC(=O)c2ccc(CO)cc2)c(C)n1CC1COc2ccccc2O1 (stereo not drawn) | inconclusive [inhibitor, single point] | 
CCOc1ccccc1C(=O)NC1CCN(Cc2ccccc2)CC1 | inconclusive [inhibitor, single point] | 
CC1=C(C(=O)OCCOc2ccccc2)C(c2ccsc2)NC(=O)N1C (stereo not drawn) |  | inactive: -16.5%
CCCOc1ccccc1C1CC(=O)NC(C)=C1C(=O)OCC(C)C (stereo not drawn) | inconclusive [inhibitor, single point] | 
COc1ccc(-c2n[nH]c(=S)nc2-c2ccc(OC)cc2)cc1 |  | inactive: 35.9%
Cc1cccc(C(=O)Nc2cc(S(=O)(=O)N3CCOCC3)ccc2N2CCCC2)c1 | inconclusive [inhibitor, partial curve, poor fit] | 
COCCCn1c(Cc2csc(Nc3cccc(Cl)c3)n2)nnc1SCC(=O)OC | inconclusive [inhibitor, partial curve, poor fit] | 
NS(=O)(=O)c1ccc(-c2ccc(/C=N/NC(=O)c3ccccc3O)o2)cc1 | inconclusive [inhibitor, single point] | 
O=C(CSCc1cc(=O)n2nc(C3CC3)sc2n1)Nc1ccccc1Cl | inconclusive [inhibitor, partial curve] | 
C[C@@]12C(=O)N(c3cccc(Br)c3)C(=O)N1[C@H](c1ccc(Cl)cc1)[C@@H]1C(=O)N(C3CCCCC3)C(=O)[C@@H]12 | inconclusive [inhibitor, partial curve, poor fit] | 
COc1ccc([C@@H]2[C@@H]3C(=O)N(C(C)(C)C)C(=O)[C@@H]3[C@]3(C)C(=O)N(c4ccc(C)cc4)C(=O)N23)cc1 |  | inactive: -9.89%

Compound | Potency | activity change, negative = inhibition
CCC(=O)NC(c1ccccc1Cl)c1c(O)ccc2ccccc12 (stereo not drawn) | active: 10.4 µM | 
COC(=O)c1ccc(-n2c(C)cc(/C=N/Nc3nc(C)cc(=O)[nH]3)c2C)cc1 | active: 8.28 µM | 
COc1cc(NC(=O)Nc2cccc3cccnc23)cc(OC)c1OC | inconclusive [inhibitor, single point] | 
COc1ccccc1OCCCC(=O)Nc1ccc([N+](=O)[O-])cc1Br |  | inactive: 10.4% [at 5.75 µM]
CC(C)(C)NCC(O)COc1ccccc1C(C)(C)C (stereo not drawn) | active: 4.65 µM | 
O=C(OCc1c(-c2ccccc2)ncc2ccccc12)c1cccc(Br)c1 | inconclusive [inhibitor, partial curve, poor fit] | 
CC(=O)OC(COc1cccc(C)c1)Cn1cnc2ccccc21 (stereo not drawn) | inconclusive [inhibitor, single point] | 
CN(C)c1ccc(C(=O)N/N=C/C23CC[C@@H](O)CC2(O)CC[C@@H]2[C@@H]3CCC3(C)C(C4=CC(=O)OC4)CCC23O)cc1 (stereo partly drawn) | inconclusive [inhibitor, partial curve] | 
Cc1cccc(C(=O)Nc2cccc(C(=O)N/N=C/c3ccccn3)c2)c1 | inconclusive [inhibitor, single point] | 
O=C(Nc1ccc2nn(-c3ccccc3)nc2c1)c1cccs1 | inconclusive [inhibitor, partial curve, poor fit] | 
CC1(C)CC(=O)C=C(NCCN2CCN(C(=O)Nc3ccc(Cl)cc3)CC2)C1 | inconclusive [inhibitor, partial curve] | 
CC(C)(C)c1cnnn1-c1ccc(/C=N/Nc2ccc([N+](=O)[O-])cc2)cc1 | active: 11.7 µM | 
Cc1ccc(S(=O)(=O)NCC(c2ccc3c(c2)OCO3)N2CCN(c3ccccc3)CC2)cc1 (stereo not drawn) | inconclusive [inhibitor, full curve] | 
Cc1ccc(S(=O)(=O)N(C)CC(=O)NCCCn2ccnc2)cc1 |  | inactive: 2.77%
CCCN(CC(=O)Nc1ccccc1C)C(=O)c1cccc(S(=O)(=O)N2CCc3ccccc3C2)c1 | inconclusive [inhibitor, single point] | 
Cc1nc(-c2ccc(F)cc2)c(CC(=O)NCC(=O)Nc2ccc(F)c(F)c2)s1 | inconclusive [inhibitor, single point] | 
COC(=O)Cn1ncc(N2C3CC(CC(C)(C)C3)C2C)c(Cl)c1=O (stereo not drawn) | inconclusive [inhibitor, full curve, poor fit] | 
O=C(NCCc1ccccc1)C1c2ccccc2C(=O)N1Cc1cccs1 (stereo not drawn) |  | inactive: -29%
CC1=NN(c2ccc(Cl)c(C(=O)O)c2)C(=O)C1 |  | inactive: 4.46%
CCc1nnc(NC(=O)c2ccc(S(=O)(=O)N(C)c3ccccc3)cc2)o1 | inconclusive [inhibitor, partial curve, poor fit] | 
Cc1ccc(/C=N/NC(=O)c2ccc(Cn3cc([N+](=O)[O-])cn3)o2)cc1 |  | inactive: 18.1%
COCCN1CCN(C(=O)c2cc(COc3ccc(F)c(F)c3)on2)CC1 |  | inactive: 13.8%
